Laboratory results taken from PubChem BioAssay AID1508624 (National Center for Advancing Translational Sciences (NCATS), 2021).
Hit rate of the full screen: of about 48,000 compounds, about 120 (0.25%) were called active. Not shown: some 4% with an inconclusive outcome. Calls follow the shape of the dose curve; as a rule, active = well fitted activation curve with a large enough effect; inconclusive = small, poorly fitted or top-dose-only effect, or another doubt; inactive = no such curve, though single readings can be large or run the other way. Some of the results follow.

experiment: Primary qHTS for Identification of Small Molecule Activators of Huntingtin-Antisense Promoter Activity; conditions: HEK293 HTT-AS promoter firefly luciferase reporter, 24 h; series mostly up to 57.5 µM; activity change, positive = activation: at the top concentration; also: nearly all actives have a fitted effect of over 55% in size
Procedure, shortened: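 Quantitative HTS used concentration series of up to 57.5 uM final on HEK293 luciferase reporter cells, 24 h at 37 degrees C. Readout was Dual-Glo firefly luminescence.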

Activity change, positive = activation, inactive:
Cc1cccc(-c2nnc(C3CCN(S(=O)(=O)c4cccc(Cl)c4)CC3)o2)c1 -63.2%
CCOc1cc2[nH]c(=O)n(Cc3ccc(C(=O)N4CCN(c5cccc(Cl)c5)CC4)cc3)c(=O)c2cc1OCC -20.5%
CC(=O)CSc1nnc2[nH]c(=O)cc(N)n12 13.5%
Cn1nc(C(=O)Nc2ccc(F)c(Cl)c2)c2c1-c1ccccc1S(=O)(=O)C2 -19.1%
CCc1ccc(CNC(=O)C2CCN(c3nn4cc(-c5ccc(F)cc5)nc4s3)CC2)cc1 9.78%
CCOC(=O)c1c(C)c(-c2ccccc2)n(CC(=O)NC2CCCCC2)c1C -4.45%
O=C(Cn1c(=O)nc(-c2ccccc2)c2cc(Cl)ccc21)N1CCN(c2ccc(F)cc2)CC1 1.81%
COc1ccc(Br)cc1CN1C(=O)c2ccccc2C1C(=O)NC1CCCCCC1 (centres undefined) -9.53%
COC(=O)c1c(NC(=O)CCCOc2cccc(C)c2)sc2c1C(C(=O)OC)CC2 (centres undefined) -26.2%
COc1cc(Oc2ccnc3cc(OC)c(OC)cc23)ccc1NC(=O)NC(C)c1nccs1 (centres undefined) -24.6%
CCN(CC)C(=O)Cn1c(=O)n(Cc2ccc(C(=O)NCCc3ccc(OC)c(OC)c3)cc2)c(=O)c2ccccc21 -8.94%
CCc1ccc(CN(Cc2cn[nH]c2-c2ccc(OC)cc2)C(=O)Nc2cc(Cl)ccc2OC)cc1 -19.4%
Cc1ccc(-n2ncc(C(=O)NCc3ccco3)c2C2CCN(C(=O)OC(C)(C)C)CC2)c(C)c1 -10.1%
CC(=O)c1ccc(N2C(=O)N(CC(=O)c3ccc(F)cc3)c3ccccc3S2(=O)=O)cc1 -16.9%
Cc1ccc(-n2ncc3c(NC4CCCCCC4)ncnc32)cc1Cl -12.9%
CCCCN(CCCNC(=O)c1cc(Nc2ccc(OC)c(OC)c2)nc2ccccc12)Cc1ccccc1 -19.4%
COc1ccc(S(=O)(=O)NCCc2csc(-c3ccc(F)cc3)n2)cc1F -31.3%
CCOC(=O)C1=C(C)N=C2SCCC(=O)N2C1c1ccc(OCc2ccccc2)cc1 (centres undefined) -18.8%
O=C(Nc1ccc(OC(F)(F)F)cc1)c1cc2ccccn2n1 20%
O=c1nc2n(-c3ccccc3F)c3ccccc3cc-2c(=O)[nH]1 8.72%
COc1cc(OC)c(Nc2nc3ccc(C(=O)c4ccccc4)cc3n3c(C)nnc23)cc1Cl -2.35%
CCCCn1cc2c(c1-c1ccc(Cl)cc1)c(=O)n(C)c(=O)n2C -32.2%
Cc1cc(C)cc(NS(=O)(=O)c2cc3c(cc2C)NC(=O)CO3)c1 -19.3%
CN1N=C(N)c2cn([C@@H]3O[C@H](COP(=O)(O)O)[C@@H](O)[C@@H]3O)c3ncnc1c23 -15.9%
CCOC(=O)c1c(NC(=O)c2ccc(S(=O)(=O)N(CC(C)C)CC(C)C)cc2)sc2c1CCN(C(=O)OCC)C2 -6.13%
CCC(=O)N(CCC(c1ccccc1)c1ccc2c(c1)OCO2)Cc1ccc(OC(C)C)cc1 (centres undefined) -38.8%
COc1ccc(NC(=O)CSc2nnc(-c3nonc3NC(C)=O)n2-c2ccccc2)cc1 -13.9%
COc1ccc(Cl)cc1NC(=O)c1sc2nc3n(c(=O)c2c1C)CCC3 -10%
CCCN(C(=O)Cn1cnc2onc(-c3ccc(F)cc3)c2c1=O)c1cccc(Cl)c1 -33.5%
Cc1cc(C)n(-c2nc3ccccc3nc2Nc2cccc(C)c2C)n1 4.25%
CCOc1ccc(CCNS(=O)(=O)c2cc(Br)cc3c2N(C(C)=O)CC3)cc1OCC -16.3%
CCC(Sc1nc2ccccc2c(=O)n1CCc1ccc(OC)c(OC)c1)C(=O)N(CC)CC (centres undefined) -42%
CC(=O)OCC[N+](C)(C)C -0.547%
COc1cccc(N2CCN(C(=O)Cn3c(-c4cccs4)cc4ccccc43)CC2)c1 -15%
COc1ccc(CN2C(=O)c3ccccc3C2C(=O)NCCc2ccccc2)c(OC)c1 (centres undefined) 3.92%
CC(C)CCNC(=O)CN1N=C(c2ccc(Cl)cc2)CCC1=O -13.7%
CC1=C(C(=O)Nc2ccc(C)cc2C)C(c2cccs2)n2nc(SCc3ccccc3Cl)nc2N1 (centres undefined) -7.94%
C[C@H](c1ccc(F)cc1CCCC(=O)O)N(c1cc(F)ccc1F)S(=O)(=O)c1ccc(Cl)cc1 -22.8%
O=c1cc(-c2ccccc2)n2c(SCc3ccc(F)cc3)nnc2[nH]1 -12.7%
Cc1cn2c(=O)cc(COC(=O)COc3ccccc3C)nc2s1 -0.316%
CCOC(=O)c1c(C)[nH]c(CCC(=O)NCc2ccc(N(C)C)cc2)c1C -28.6%
CCN(Cc1ccccc1)C(=O)Cn1c(=O)n(-c2ccc(C)c(C)c2)c(=O)c2c(C)c(C)sc21 -18.7%
O=c1oc2ccccc2cc1-c1cn2cc(Cc3ccc(Cl)cc3)sc2n1 0.0744%
O=C(Nc1cccc(C(F)(F)F)c1)c1cc2ccc3cccnc3c2[nH]1 6.78%
Cc1ccc(-c2nc(C)c(CCNS(=O)(=O)c3ccc(F)c(C(F)(F)F)c3)s2)cc1 -11.7%
COc1ccc(CNc2oc(-c3ccc(COc4ccccc4C)o3)nc2C#N)cc1 -63.5%
CCn1cc(C(=O)N2CCN(c3ccccc3F)CC2)c(=O)c2cc(S(=O)(=O)N(C)C)ccc21 8.97%
COc1cccc(C(=O)Nc2cccc(-c3cn4c(C)csc4n3)c2)c1OC 14.8%
Cc1cccc(N2CCN(C(=O)CCn3c(=O)c4cccn4c4cccnc43)CC2C)c1 (centres undefined) -33.7%
O=C(Nc1cccc(Cl)c1)c1cc2c(=O)[nH]c3ccccc3c2s1 8.49%
Cc1cccc(-c2nc3c4ccccc4nc(N4CCN(c5cc(C)ccc5C)CC4)n3n2)c1 5.99%
CC1(C)CCC2=C(O1)c1ccccc1C(=O)C2=O -16.9%
Cc1nnc(N2CCCC(C(=O)NCCc3ccc(Cl)cc3)C2)c2nn(-c3ccccc3)c(C)c12 (centres undefined) -25.5%
O=C(Nc1ccc(-c2cn3cccnc3n2)cc1)c1cc(Br)ccc1Cl -15.5%
CCc1ccccc1NC(=O)c1cnc2sc(N3CCCC3)nn2c1=O -16.8%
Cc1ccc(Nc2nc(C)nc(N)c2S(=O)(=O)c2ccccc2)cc1 -15%
CC1=C(C(=O)Nc2ccccc2)C(c2cccn2C)n2ncnc2N1 (centres undefined) -7.65%
Cc1ccc(C)c(Cn2c(C3CC(=O)N(c4ccccc4C)C3)nc3ccccc32)c1 (centres undefined) -40.4%
COc1ccc(Cn2c(=O)c3oc4ccccc4c3n(CC(=O)Nc3ccc(F)cc3F)c2=O)cc1 2.09%
Cc1ccc(Cl)cc1N1CCN(Cc2nnc(-c3ccc4c(c3)OCO4)o2)CC1 0.852%
Cc1cc(NC(=O)C2CCN(S(=O)(=O)c3ccc(Br)s3)CC2)ccc1Br -19.1%
Cc1ccc(CNC(=O)CSc2n[nH]c(-c3ccc(F)cc3)n2)cc1 -27.2%
O=S(=O)(c1ccc2nc(N3CCN(c4cccc(Cl)c4)CC3)ccc2c1)N1CCCCC1 -6.05%
Cc1ccc(NC(=O)CSc2nc(-c3ccco3)cc(C(F)(F)F)n2)cc1 -35.6%
Cc1ccc(NC(=O)CN2C(=O)CCSc3ccc(S(=O)(=O)N4CCCC4)cc32)cc1C -7.26%
Cc1ccc(C)c(OC(=O)CSc2nnc(CNC(=O)c3ccccc3)o2)c1 -3.36%
CC1=C(c2ccc(C)cc2)S(=O)(=O)NC1=NCCCN1CCN(c2ccc(F)cc2)CC1 -31.8%
Cc1cc2oc(C(=O)Nc3ccc(S(=O)(=O)N4CCCCCC4)cc3)cc(=O)c2cc1C 1.07%
CCN(CC)c1ccc(NS(=O)(=O)c2cc3[nH]c(=O)c(=O)[nH]c3cc2C)c(C)c1 -15.2%
CC(C)c1ccc(OC(=O)c2cc(-c3ccccc3)on2)cc1 -2.01%
CCN(CC)c1ccc(NC(=O)CSc2nc(-c3cccs3)cc(C(F)(F)F)n2)cc1 -7.84%
Cc1ccc(NC(=O)Nc2nnc(N(C)Cc3ccccc3)s2)c(C)c1 -7.05%
CC(=O)N1CCc2c(sc3nc(SCC(C)C)n(-c4ccc(F)c(Cl)c4)c(=O)c23)C1 -26.1%
CCCSc1ncc(Cl)c(C(=O)Nc2c(C(=O)Nc3ccc(C)cc3)oc3ccccc23)n1 -6.89%
COC(=O)c1ccc(C2C(C(=O)Nc3ccccc3)=C(C)Nc3nc4ccccc4n32)cc1 (centres undefined) -21.2%
CCc1nc(Oc2cccc(F)c2)c2oc3ccccc3c2n1 0.873%
COCCCNc1oc(-c2ccc(COc3ccc(Cl)cc3)o2)nc1C#N -36.8%
CCCCCNC(=O)CCCCCn1c(=O)[nH]c2ccsc2c1=O -0.753%
COc1ccc(CNC(=O)C2CCN(c3nc4ccccc4[nH]3)CC2)cc1OC -8.55%
O=C(Nc1sc2c(c1C(=O)NCC1CCCO1)CCC2)c1cc(=O)c2ccccc2o1 (centres undefined) 0%
CCOC(=O)c1c(S(=O)(=O)N2CCCC(C(=O)Nc3cccc(C)n3)C2)c(C)n(C)c1C (centres undefined) 7.91%
CCOc1ccc(C2CC(=O)Nc3c2c(=O)nc(SCc2ccccc2C)n3C)cc1OC (centres undefined) -15.9%
OCCN1C[C@H](O)[C@@H](O)[C@H](O)[C@H]1CO -0.786%
CCn1cc(C(=O)OCC(=O)Nc2cccc(C(C)=O)c2)c(=O)c2ccc(C)nc21 -14.6%
COc1ccc(Cn2c(=O)c3oc4ccccc4c3n(Cc3ccc(Cl)cc3)c2=O)cc1 -7.56%
CCOC(=O)c1c(C)[nH]c(C)c1S(=O)(=O)N1CCCC(C(=O)N2CCN(c3ccccc3)CC2)C1 (centres undefined) 7.78%
CCOCCc1nn2c(=O)cc(COC(=O)C3CCCCC3)nc2s1 -6.87%
Cc1ccc2c(=O)cc(C(=O)Nc3cccc(C(F)(F)F)c3)oc2c1C 5.21% [at 11.5 µM, percent change from vehicle, -100% = no light]
Cc1cccn2c(=O)c3cc(C(=O)NC(C)c4ccccc4)c(=N)n(CCCO)c3nc12 (centres undefined) 13.5%
Cc1ccc(NC(=O)CSc2nnc3scc(-c4ccccc4)n23)cc1 -14.5%
O=C(Cn1nnc(-c2ccccc2Cl)n1)Nc1ccc(Br)cc1 4.64%
COC(=O)c1ccc(OCC2c3cc(OC)c(OC)cc3CCN2C(=O)c2ccc(F)cc2)cc1 (centres undefined) -21.4%
Cc1ccc2c(=O)cc(C(=O)Nc3sc4c(c3C(=O)NCc3cccnc3)CCCC4)oc2c1C 0.457%
Fc1ccc(-c2noc3ncnc(NCCCN4CCN(c5ccccc5)CC4)c23)cc1 -24.2%
